{"source": "patent US9777070B2", "about": "“Anti-PTK7 antibody-drug conjugates” (Pfizer Inc., priority 2014, dated 2017)", "molecules": {"B1": {"name": "hu24 (antibody)", "heavy": "QVQLVQSGPEVKKPGASVKVSCKASGYTFTDYAVHWVRQAPGKRLEWIGVISTYNDYTYNNQDFKGRVTMTRDTSASTAYMELSRLRSEDTAVYYCARGNSYFYALDYWGQGTSVTVSS[letters of human IgG1 constant region omitted]", "light": "EIVLTQSPATLSLSPGERATLSCRASESVDSYGKSFMHWYQQKPGQAPRLLIYRASNLESGIPARFSGSGSGTDFTLTISSLEPEDFAVYYCQQSNEDPWTFGGGTKLEIKRTVAAPSVFIFPPSDEQLKSGTASVVCLLNNFYPREAKVQWKVDNALQSGNSQESVTEQDSKDSTYSLSSTLTLSKADYEKHKVYACEVTHQGLSSPVTKSFNRGEC"}, "B2": {"name": "hu24-vc0101: hu24 conjugated through cysteines to vc0101 linker-payload; average DAR approximately 4 (conjugate)", "heavy": "B1 heavy", "light": "B1 light"}}, "key": {"[1]": {"molecular_target": "T1, PTK7 on cancer cell lines (H661, H446, U2OS) (Homo sapiens, UniProt Q13308)", "T1 construct": "cancer cell lines with endogenous expression of PTK7; endogenous in cells; host or cells: cultured cancer cell lines (e.g. H661, H446, U2OS, H520, H1048, OE19, OE21, H1975, EKVX)", "T1 sequence (Q13308 31-1070)": "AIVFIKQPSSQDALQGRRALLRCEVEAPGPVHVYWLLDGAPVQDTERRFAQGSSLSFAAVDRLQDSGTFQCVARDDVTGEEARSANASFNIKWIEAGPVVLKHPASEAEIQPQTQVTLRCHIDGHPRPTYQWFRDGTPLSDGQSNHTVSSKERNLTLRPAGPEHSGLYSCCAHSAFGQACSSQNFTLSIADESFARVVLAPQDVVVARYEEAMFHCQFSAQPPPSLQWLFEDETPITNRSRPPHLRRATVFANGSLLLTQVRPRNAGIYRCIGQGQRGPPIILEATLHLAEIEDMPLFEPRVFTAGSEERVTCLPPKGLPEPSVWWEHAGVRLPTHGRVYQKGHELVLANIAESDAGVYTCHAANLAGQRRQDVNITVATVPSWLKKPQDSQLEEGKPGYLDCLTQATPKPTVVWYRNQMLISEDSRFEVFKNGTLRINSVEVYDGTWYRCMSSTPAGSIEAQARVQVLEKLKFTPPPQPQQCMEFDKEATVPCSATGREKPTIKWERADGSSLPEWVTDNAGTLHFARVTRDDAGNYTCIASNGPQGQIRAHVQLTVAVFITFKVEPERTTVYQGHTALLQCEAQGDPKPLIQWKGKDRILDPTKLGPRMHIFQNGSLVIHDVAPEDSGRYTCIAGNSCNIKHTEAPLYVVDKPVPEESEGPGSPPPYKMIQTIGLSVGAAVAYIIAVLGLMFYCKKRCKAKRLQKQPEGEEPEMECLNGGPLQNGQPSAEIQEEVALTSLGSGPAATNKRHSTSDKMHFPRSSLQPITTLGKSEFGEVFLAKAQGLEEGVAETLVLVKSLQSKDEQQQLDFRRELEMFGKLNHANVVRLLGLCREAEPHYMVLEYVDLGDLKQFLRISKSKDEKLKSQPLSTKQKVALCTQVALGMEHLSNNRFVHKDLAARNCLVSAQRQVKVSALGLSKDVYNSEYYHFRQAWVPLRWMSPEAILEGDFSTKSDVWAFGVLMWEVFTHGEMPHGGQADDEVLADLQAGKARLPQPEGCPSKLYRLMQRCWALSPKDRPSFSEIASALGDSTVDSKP", "assay": "Flow cytometry binding of hu24 mAb to cancer cell lines with endogenous PTK7 (Example 3)", "method": "Briefly, adherent cells were dissociated with TrypLE™ Express (Gibco® No 12604-021) which was then neutralized with culture media. Suspension cells were harvested by centrifugation. Cells were resuspended in staining buffer (PBS with 3% BSA) with the stated concentration of mAb and incubated on ice for 30 minutes. Cells were washed in staining buffer, resuspended in staining buffer with phycoerythrin (PE)-labeled anti-human antibody (Jackson ImmunoResearch No 109-115-098) and incubated on ice for 30 minutes. Cells were washed, resuspended in staining buffer with 7-AAD viability stain (BD Biosciences, Pharmingen No 51-68981E) and analyzed by flow cytometry with a BD FACSCalibur™. The mean fluorescence intensity (MFI) in the PE channel of the viable cell population was determined for each sample."}, "[2]": {"system": "BR36 PR+ breast cancer PDX", "assay": "In vivo efficacy, PDX tumor growth", "design": "species or system human tumor in mice", "conditions": "3 mg/kg", "text": "The effects of anti-PTK7 antibody-drug conjugates were further evaluated on the in vivo growth of human tumor patient-derived xenografts (PDX). Primary tumor resection samples were procured from clinical sites following Institutional Review Board for the Protection of Human Subjects approval and in accordance with HIPAA regulations. Tumor fragments were stored and shipped in Hypothermasol (Biolife Solutions) on ice and were embedded in Matrigel (BD) containing a proprietary mix of growth factors and implanted subcutaneously into the mammary fatpad of female NOD/SCID mice within 24 hours of resection. Mice were monitored for health status daily and for tumor growth initially by visual inspection twice per week. […]\nFor efficacy studies, tumors were harvested from passaging studies and cells were dissociated into single cell suspension. Preparations were counted for live cells using Trypan blue exclusion and 10,000 to 50,000 cells were inoculated per mouse in Matrigel. […]\nMice harboring BR36 human breast cancer xenografts were dosed Q4Dx4 with hu24-vc0101 ADC, paclitaxel, negative control ADC or vehicle. Tumor measurements were recorded twice a week using digital calipers and are shown as Mean±SEM. […]\nTumor growth inhibition (TGI) was calculated using the equation % TGI=[1−(mean tumor volume of treated)/(mean tumor volume of vehicle)]. […]"}}, "data": [{"molecule": "B1", "values": [{"measurement": "MFI", "setting": "[1]; H446 (lung cancer), 0.1 μg/mL", "value": 95}, {"measurement": "MFI", "setting": "[1]; H446 (lung cancer), 1 μg/mL", "value": 342}, {"measurement": "MFI", "setting": "[1]; H446 (lung cancer), 10 μg/mL", "value": 411}, {"measurement": "MFI", "setting": "[1]; H661 (lung cancer), 0.1 μg/mL", "value": 60}, {"measurement": "MFI", "setting": "[1]; H661 (lung cancer), 1 μg/mL", "value": 243}, {"measurement": "MFI", "setting": "[1]; H661 (lung cancer), 10 μg/mL", "value": 309}, {"measurement": "MFI", "setting": "[1]; U2OS (osteosarcoma), 0.1 μg/mL", "value": 122}, {"measurement": "MFI", "setting": "[1]; U2OS (osteosarcoma), 1 μg/mL", "value": 385}, {"measurement": "MFI", "setting": "[1]; U2OS (osteosarcoma), 10 μg/mL", "value": 431}]}, {"molecule": "B2", "values": [{"measurement": "Regression (TTP, Days)", "setting": "[2]; Q4Dx4 ip", "value": "Regression (103) Days"}, {"measurement": "tumor regression without tumor growth through day", "setting": "[2]; BR36, Q4Dx4, FIG. 17", "value": "≥ 103", "unit": "days"}]}]}
